# Assay results from the supplement of paper PMC8728848.
# The list shows a part of the results.
# B1: PX9961U-pdi-543-24-543 (Parabacteroides distasonis) (protein)
# chain: EEPVGEFLPGQVESEENIEGIVTGAYAVLDGYYASDAINSGCSNWQFGDVVSDDAYKGGGGTGDQNQIHLMEIFNANPTGIDFEARWAALYEGIKRCNQAIRLLNGSEVKNKEQRLAEMRFLRGHYYFNLKIIYNQIPWIDETLVDPNEYNKKSNIEFSSDQLWEKILEEFSAAYKVLPESQADYGRPTKMAARAYMAKVYLYQSKWKECLEACDEVIQSGKYELFPDFRNVFLPENDNCSEIIFAIQLSINDGSPNNENGSYGDRLLPPGGPYPVYGFLRPTQNLVNAYKTDVKGLPYNDGKDVSENDYVDVRLDHTLARPNIPFMDVQLYDWTPREASVYGPYSPKKRLVSLNSTYYSPIWPYVNALNFYVIRYADLLLWRAEAAIETGDLETGRKYINMIRERAKNTQHVKTMDQSQDAANYKVGVYDEPFKSKNEAVQALRMERRLEMAHEGIRFFDLVRWGVADEVINAYIAKEKVFRSHLQNAHFVKGKHEYFPIPQSMIDICGTEVMKQNPGY
# Columns and labels:
# Assay in all cases: glycan array binding signal (z-score within array); higher = stronger binding
# Conditions in all cases: glycan notation: IUPAC condensed, linker removed
# [1] = molecular target: Neu5Ac(a2-6)Gal(b1-4)GlcNAc(b1-2)Man(a1-3)[Neu5Ac(a2-3)Gal(b1-4)GlcNAc(b1-2)Man(a1-6)]Man(b1-4)GlcNAc(b1-4)GlcNAc
# In short: (§1)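 Glycan array binding is given as a within-array Z-score, which can be read as non-binding when negative. The arrays, 3228 of them, came from the Consortium for Functional Glycomics database and were retained only where the protein sequence was available. Z-scores were averaged across arrays of the same protein sequence at different concentrations or buffers and across linkers.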
# [2] = molecular target: Neu5Ac(a2-6)Gal(b1-4)GlcNAc(b1-2)Man(a1-3)[Neu5Ac(a2-6)Gal(b1-4)GlcNAc(b1-2)Man(a1-6)]Man(b1-4)GlcNAc(b1-4)GlcNAc
# In short: as §1
# [3] = molecular target: Neu5Ac(a2-6)Gal(b1-4)GlcNAc(b1-2)Man(a1-3)[Neu5Ac(a2-6)Gal(b1-4)GlcNAc(b1-2)Man(a1-6)]Man(b1-4)GlcNAc(b1-4)[Fuc(a1-6)]GlcNAc
# In short: as §1
# [4] = molecular target: Neu5Ac(a2-6)Gal(b1-4)GlcNAc(b1-2)Man(a1-6)Man(b1-4)GlcNAc(b1-4)GlcNAc
# In short: as §1
# [5] = molecular target: Neu5Ac(a2-6)Gal(b1-4)GlcNAc(b1-2)Man(a1-6)[Gal(b1-4)GlcNAc(b1-2)Man(a1-3)]Man(b1-4)GlcNAc(b1-4)GlcNAc
# In short: as §1
# [6] = molecular target: Neu5Ac(a2-6)Gal(b1-4)GlcNAc(b1-2)Man(a1-6)[GlcNAc(b1-2)Man(a1-3)]Man(b1-4)GlcNAc(b1-4)GlcNAc
# In short: as §1
# [7] = molecular target: Neu5Ac(a2-6)Gal(b1-4)GlcNAc(b1-2)Man(a1-6)[Man(a1-3)]Man(b1-4)GlcNAc(b1-4)GlcNAc
# In short: as §1
# [8] = molecular target: Neu5Ac(a2-6)Gal(b1-4)GlcNAc(b1-2)[Neu5Ac(a2-6)Gal(b1-4)GlcNAc(b1-4)]Man(a1-3)[GlcNAc(b1-4)][Neu5Ac(a2-6)Gal(b1-4)GlcNAc(b1-2)[Neu5Ac(a2-6)Gal(b1-4)GlcNAc(b1-6)]Man(a1-6)]Man(b1-4)GlcNAc(b1-4)GlcNAc
# In short: as §1
# [9] = molecular target: Neu5Ac(a2-6)Gal(b1-4)GlcNAc(b1-2)[Neu5Ac(a2-6)Gal(b1-4)GlcNAc(b1-4)]Man(a1-3)[GlcNAc(b1-4)][Neu5Ac(a2-6)Gal(b1-4)GlcNAc(b1-4)Man(a1-6)]Man(b1-4)GlcNAc(b1-4)GlcNAc
# In short: as §1
# [10] = molecular target: Neu5Ac(a2-6)Gal(b1-4)GlcNAc(b1-2)[Neu5Ac(a2-6)Gal(b1-4)GlcNAc(b1-6)]Man(a1-6)[Neu5Ac(a2-6)Gal(b1-4)GlcNAc(b1-2)Man(a1-3)][GlcNAc(b1-4)]Man(b1-4)GlcNAc(b1-4)GlcNAc
# In short: as §1
# [11] = molecular target: Neu5Ac(a2-6)Gal(b1-4)GlcNAc(b1-3)Gal(b1-3)GlcNAc
# In short: as §1
# [12] = molecular target: Neu5Ac(a2-6)Gal(b1-4)GlcNAc(b1-3)Gal(b1-4)GlcNAc
# In short: as §1
# [13] = molecular target: Neu5Ac(a2-6)Gal(b1-4)GlcNAc(b1-3)Gal(b1-4)GlcNAc(b1-2)Man(a1-3)[Neu5Ac(a2-6)Gal(b1-4)GlcNAc(b1-3)Gal(b1-4)GlcNAc(b1-2)Man(a1-6)]GalNAc
# In short: as §1
# [14] = molecular target: Neu5Ac(a2-6)Gal(b1-4)GlcNAc(b1-3)Gal(b1-4)GlcNAc(b1-3)Gal(b1-4)GlcNAc
# In short: as §1
# [15] = molecular target: Neu5Ac(a2-6)Gal(b1-4)GlcNAc(b1-3)Gal(b1-4)GlcNAc(b1-3)Gal(b1-4)GlcNAc(b1-2)Man(a1-3)[Neu5Ac(a2-6)Gal(b1-4)GlcNAc(b1-3)Gal(b1-4)GlcNAc(b1-3)Gal(b1-4)GlcNAc(b1-2)Man(a1-6)]GalNAc
# In short: as §1
# [16] = molecular target: Neu5Ac(a2-6)Gal(b1-4)GlcNAc(b1-3)Gal(b1-4)GlcNAc(b1-3)GalNAc
# In short: as §1
# [17] = molecular target: Neu5Ac(a2-6)Gal(b1-4)GlcNAc(b1-3)Gal(b1-4)GlcNAc(b1-3)[Neu5Ac(a2-6)Gal(b1-4)GlcNAc(b1-3)Gal(b1-4)GlcNAc(b1-6)]GalNAc
# In short: as §1
# [18] = molecular target: Neu5Ac(a2-6)Gal(b1-4)GlcNAc(b1-3)Gal(b1-4)GlcNAc(b1-6)[Gal(b1-3)]GalNAc
# In short: as §1
# [19] = molecular target: Neu5Ac(a2-6)Gal(b1-4)GlcNAc(b1-3)Gal(b1-4)[Fuc(a1-3)]GlcNAc(b1-3)Gal(b1-4)[Fuc(a1-3)]GlcNAc
# In short: as §1
# [20] = molecular target: Neu5Ac(a2-6)Gal(b1-4)GlcNAc(b1-3)GalNAc
# In short: as §1
# [21] = molecular target: Neu5Ac(a2-6)Gal(b1-4)GlcNAc(b1-3)[Neu5Ac(a2-6)Gal(b1-4)GlcNAc(b1-6)]GalNAc
# In short: as §1
# [22] = molecular target: Neu5Ac(a2-6)Gal(b1-4)GlcNAc(b1-6)GalNAc
# In short: as §1
# [23] = molecular target: Neu5Ac(a2-6)Gal(b1-4)GlcNAc(b1-6)[Gal(b1-3)GlcNAc(b1-3)]Gal(b1-4)Glc
# In short: as §1
# [24] = molecular target: Neu5Ac(a2-6)Gal(b1-4)GlcNAc(b1-6)[Gal(b1-3)]GalNAc
# In short: as §1
# [25] = molecular target: Neu5Ac(a2-6)Gal(b1-4)GlcNAc6S
# In short: as §1
# Neu5Ac(a2-6)GalNAc = molecular target: Neu5Ac(a2-6)GalNAc
# In short: as §1
# [26] = molecular target: Neu5Ac(a2-6)GalNAc(b1-4)GlcNAc
# In short: as §1
# [27] = molecular target: Neu5Ac(a2-6)GalNAc(b1-4)GlcNAc6S
# In short: as §1
# [28] = molecular target: Neu5Ac(a2-6)GlcNAc(b1-4)GlcNAc
# In short: as §1
# [29] = molecular target: Neu5Ac(a2-6)GlcNAc(b1-4)GlcNAc(b1-4)GlcNAc
# In short: as §1
binder,measurement,setting,value
B1,glycan array binding signal (z-score),[1],-0.337
same,glycan array binding signal (z-score),[2],-0.347
same,glycan array binding signal (z-score),[3],0.4
same,glycan array binding signal (z-score),[4],-0.116
same,glycan array binding signal (z-score),[5],-0.374
same,glycan array binding signal (z-score),[6],-0.448
same,glycan array binding signal (z-score),[7],-0.372
same,glycan array binding signal (z-score),[8],-0.416
same,glycan array binding signal (z-score),[9],1.18
same,glycan array binding signal (z-score),[10],-0.387
same,glycan array binding signal (z-score),[11],-0.324
same,glycan array binding signal (z-score),[12],-0.364
same,glycan array binding signal (z-score),[13],0.202
same,glycan array binding signal (z-score),[14],-0.041
same,glycan array binding signal (z-score),[15],0.5
same,glycan array binding signal (z-score),[16],-0.37
same,glycan array binding signal (z-score),[17],-0.061
same,glycan array binding signal (z-score),[18],-0.238
same,glycan array binding signal (z-score),[19],0.556
same,glycan array binding signal (z-score),[20],1.92
same,glycan array binding signal (z-score),[21],0.015
same,glycan array binding signal (z-score),[22],-0.28
same,glycan array binding signal (z-score),[23],-0.485
same,glycan array binding signal (z-score),[24],-0.357
same,glycan array binding signal (z-score),[25],-0.381
same,glycan array binding signal (z-score),Neu5Ac(a2-6)GalNAc,-0.388
same,glycan array binding signal (z-score),[26],-0.417
same,glycan array binding signal (z-score),[27],-0.272
same,glycan array binding signal (z-score),[28],-0.419
same,glycan array binding signal (z-score),[29],-0.445
